Measurements taken from the BET-seq Pho4 binding data (Le et al. 2018).
Some of the results follow. These are noisy estimates, calculated here from bound and input reads.

Target: T1, Pho4 (S. cerevisiae) (UniProt P07270)
T1 sequence: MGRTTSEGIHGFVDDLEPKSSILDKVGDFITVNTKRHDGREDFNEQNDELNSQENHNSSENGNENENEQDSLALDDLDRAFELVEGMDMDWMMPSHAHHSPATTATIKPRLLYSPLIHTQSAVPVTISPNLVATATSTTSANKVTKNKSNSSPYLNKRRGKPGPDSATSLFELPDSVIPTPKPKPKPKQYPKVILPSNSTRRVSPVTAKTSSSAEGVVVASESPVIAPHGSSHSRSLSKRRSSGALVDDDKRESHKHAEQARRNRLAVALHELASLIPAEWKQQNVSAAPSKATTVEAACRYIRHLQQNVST
Test: relative binding free energy (BET-seq); higher = weaker binding
Settings: reference: library average

| Sequence | relative binding free energy [kcal/mol] |
| --- | --- |
| CTGGCCACGTGGGTGT | -0.16 |
| GTGTACACGTGGGATA | 0.06 |
| TGCGTCACGTGGTACG | 0.07 |
| TAGTGCACGTGGTAGC | -0.09 |
| ACAAGCACGTGGGGGA | -0.27 |
| CTGTTCACGTGGTCTT | 0.19 |
| GTGCGCACGTGGTGTA | -0.1 |
| CTAATCACGTGGATTT | 0.11 |
| GGGCGCACGTGAGGAA | 0.2 |
| TTGAGCACGTGCCGGT | -0.09 |
| TTCTACACGTGTTGTT | 0.05 |
| CTTAGCACGTGGTAGA | -0.05 |
| TATTACACGTGTTTGT | 0.08 |
| GTGTTCACGTGTGAGG | 0.35 |
| AGTTCCACGTGGGTCG | -0.08 |
| TGTGTCACGTGAAATT | 0.41 |
| TTAGGCACGTGGGTTC | -0.19 |
| TGTAGCACGTGGGGGA | -0.21 |
| ATATCCACGTGTTTTT | -0.02 |
| TGAGGCACGTGTAAAG | -0.01 |
| TCATTCACGTGTGGAA | 0.3 |
| GTTGTCACGTGATTGT | 0.31 |
| AGTGTCACGTGTCAGA | 0.19 |

| Sequence | relative binding free energy [kcal/mol] |
| --- | --- |
| TAGTTCACGTGCATAG | 0.22 |
| TTTAGCACGTGTGCTT | -0.01 |
| GGGCACACGTGTGGTC | 0.24 |
| ATGTACACGTGGCGGA | 0.08 |
| GTTTACACGTGGCATT | 0.03 |
| TGACGCACGTGTGGGC | -0.11 |
| TTAGTCACGTGAAGTA | 0.18 |
| TCCGGCACGTGGTGGA | -0.09 |
| TTGGACACGTGAGTCT | 0.19 |
| ATTTGCACGTGGAGTT | 0 |
| ATATTCACGTGAATCG | 0.41 |
| GAATGCACGTGGAGTG | 0.01 |
| AAGGACACGTGGTAGA | 0.06 |
| TGAGACACGTGGTGCA | 0 |
| AGTCACACGTGGGCGG | -0.2 |
| GTAGACACGTGTTAAG | -0.01 |
| AGGGACACGTGGGACT | -0.03 |
| GGGGCCACGTGACGTG | 0.03 |
| TACGTCACGTGATTGT | 0.21 |
| ATCGACACGTGGTGAG | 0.05 |
| AGGGCCACGTGGGGGC | -0.28 |
| TAGTTCACGTGGGGTC | 0.09 |
| TCGGTCACGTGAGGTA | 0.15 |

| Sequence | relative binding free energy [kcal/mol] |
| --- | --- |
| CGCGGCACGTGTCTGG | 0.03 |
| TGGAGCACGTGCCTGG | -0.2 |
| TAGAACACGTGTGTTA | -0.05 |
| TACGGCACGTGCCGGG | 0 |
| AGGATCACGTGTCAGG | 0.2 |
| TCAATCACGTGATTGT | 0.13 |
| ATATGCACGTGGATTA | 0 |
| AGCAACACGTGTGGTG | 0.05 |
| TCGGGCACGTGGTTCA | -0.16 |
| AATGTCACGTGTTTCT | 0.1 |
| ACGGGCACGTGGTGAG | -0.23 |
| TTGATCACGTGGGGAC | -0.03 |
| CGGTTCACGTGATAGT | 0.29 |
| TGACGCACGTGTTTTA | -0.06 |
| GTATGCACGTGTACTG | 0.03 |
| CGATGCACGTGTTGTT | 0 |
| TTGTTCACGTGTAGAC | 0.28 |
| GCGTTCACGTGGATGG | 0.2 |
| AGTTACACGTGTAGTT | 0.14 |
| AAATGCACGTGTGATG | 0.12 |
| GTAGGCACGTGTGTGA | 0.01 |
| GCTATCACGTGTTTTA | 0.22 |
| TCGTTCACGTGATGGG | 0.36 |

| Sequence | relative binding free energy [kcal/mol] |
| --- | --- |
| GTTGACACGTGATGTT | 0.17 |
| AGAATCACGTGGTAGT | 0.26 |
| CGATGCACGTGTTTTA | 0.03 |
| GGGGTCACGTGGCGAG | 0.01 |
| TGTAGCACGTGTAAAG | 0.06 |
| TGTAACACGTGGAGTT | -0.01 |
| GGTGGCACGTGGGCAG | -0.1 |
| CGTGGCACGTGAATTT | 0.15 |
| TGGGTCACGTGAGCTC | 0.26 |
| ATTGTCACGTGGCTTG | 0.13 |
| TATGCCACGTGAGGGT | 0.17 |
| GGTATCACGTGTTTTC | 0.17 |
| GTAGCCACGTGGGTAG | -0.12 |
| CTTGGCACGTGCTTGA | -0.08 |
| ATTGTCACGTGTTTCG | 0.03 |
| CTGTTCACGTGGCTGT | 0.09 |
| TGAGGCACGTGGGGCC | -0.08 |
| GGCGTCACGTGGGAGC | 0.09 |
| GTGAACACGTGGGTGC | -0.04 |
| TGCTTCACGTGTAGGG | 0.16 |
| CAAGTCACGTGAGGGG | 0.23 |
| AGGTTCACGTGACATT | 0.4 |
| TGGTGCACGTGGTTGT | 0.02 |

| Sequence | relative binding free energy [kcal/mol] |
| --- | --- |
| AATGGCACGTGGCTTG | -0.16 |
| TTTAGCACGTGTGATC | -0.04 |
| TAGTTCACGTGAAGGC | 0.47 |
| TTTGGCACGTGACATT | 0.01 |
| AAAGACACGTGTGAGG | 0.12 |
| GGAGACACGTGTGTAT | -0.02 |
| AGGGTCACGTGGGAGA | 0.05 |
| GGGGTCACGTGGTACA | 0.04 |
| AGTGTCACGTGGTAGG | -0.02 |
| CAGGGCACGTGGGGTT | -0.2 |
| AGATTCACGTGTAGCG | 0.3 |
| TATCACACGTGGTCGG | 0.11 |
| TGTTTCACGTGATCTT | 0.32 |
| CGAAACACGTGGGGCG | 0.02 |
| GGTACCACGTGTTTGT | 0 |
| TTTGCCACGTGTGAAT | 0.01 |
| ATGTTCACGTGGGCGG | 0.17 |
| AGGTGCACGTGACGAG | 0.14 |
| AAATACACGTGAGTTT | 0.25 |
| GAGGGCACGTGGCGCG | -0.15 |
| AGTTCCACGTGTATTA | 0.08 |
| GTTGTCACGTGGGGAA | 0.12 |
| GGGTACACGTGATCGT | 0.23 |
